In all, about 420,000 compounds went through this assay and about 50,000 (12%) were called active. Inconclusive results, whose numbers are uncertain, are shown with a selection of clear calls. Calls follow the shape of the dose curve; as a rule, active = well fitted inhibition curve with a large enough effect; inconclusive = small, poorly fitted or top-dose-only effect; inactive = flat fitted curve, though single readings scatter. Potencies of inconclusive entries are left out as doubtful fits.
Test: qHTS for Inhibitors of human tyrosyl-DNA phosphodiesterase 1 (TDP1): qHTS in cells in presence of CPT; also: nearly all actives have a fitted effect of over 55% in size
Settings: chicken DT40 Tdp1-/-;hTDP1 cells + 20 nM CPT, ATP luminescence, 48 h; activity change, negative = growth inhibition: at 46.2 µM (top of the series) unless noted
Procedure, shortened: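 Cell growth measured by CellTiter-Glo luminescence after a minimum 48 h, 37 C compound exposure with 20 nM CPT in Tdp1-knockout DT40 cells stably expressing hTDP1, seeded 400/well; qHTS titration format.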
% is scaled to controls: 0 for no effect and ±100 for the full control effect; potency is read from the fitted curve at half-maximal effect; tags tell the direction and shape of the fitted curve.

| SMILES | Potency | activity change, negative = growth inhibition |
| --- | --- | --- |
| Cc1cc(NC(=O)CCN2CCN(Cc3ccccc3)CC2)ccc1Br | inconclusive [inhibitor, single point] | – |
| CCOc1ccc(S(=O)(=O)Nc2cccc(-c3ccc(OCC)nn3)c2)cc1 | active: 11.6 µM | – |
| CCN(CC)CCCNC(=O)c1ccc2c3n(nc2c1)-c1ccc(Cl)cc1CO3 | inconclusive [inhibitor, single point] | – |
| O=C(NCCc1ccccn1)c1nc(Cn2cc([N+](=O)[O-])cn2)no1 | – | inactive: 5.17% |
| CCOCCCn1c(=NC(=O)c2cccs2)c(C#N)cc2c(=O)n3cccc(C)c3nc21 | inconclusive [inhibitor, single point] | – |
| Cn1c(SCc2cc(=O)[nH]c3ccccc23)nnc1-c1ccc(Br)cc1 | inconclusive [inhibitor, single point] | – |
| CCCCSc1nnc(-c2c[nH]c3ccccc23)n1C | inconclusive [inhibitor, partial curve] | – |
| Cc1cc(C)c2oc(C(=O)Nc3ccc(S(=O)(=O)N4CCCCCC4)cc3)cc(=O)c2c1 | – | inactive: -6.28% |
| CCC[C@H]1COCCS(=O)(=O)N1Cc1ccc(Br)cc1 | inconclusive [inhibitor, single point] | – |
| Cc1cccc(NC(=O)c2c(C)cc(C)nc2SCC(=O)c2ccccc2)c1 | inconclusive [inhibitor, single point] | – |
| Cc1cccc(N2C(N)=NC(N)=NC23CCCCC3)c1 | active: 16.4 µM | – |
| CCc1nc2ccccc2c(C(=O)Nc2cc(C)ccc2C)c1C | inconclusive [inhibitor, single point] | – |
| COc1ccc(S(=O)(=O)c2cn(C)c3ccc(C)cc3c2=O)cc1 | – | inactive: -14.1% |
| COC1C(C)=C(C)C(=O)N1Cc1ccc(F)cc1 (stereo not drawn) | inconclusive [inhibitor, single point] | – |
| CC(C)N1CC(O)=C(c2nc3ccccc3c(=O)[nH]2)C1=N | – | inactive: -10.6% |
| O=C(Cn1cc2c(n1)CCCC2)Nc1ccccc1Cl | – | inactive: -17.5% |
| Cc1cccc(NC(=O)COC(=O)CCCC2=NS(=O)(=O)c3ccccc3N2)c1 | inactive | – |
| O=S(=O)(NNc1cccc(Cl)n1)c1ccc(Cl)cc1 | – | inactive: -22.7% |
| Cn1cnnc1SCC(=O)NCCC(c1ccccc1)c1ccccc1 | inconclusive [inhibitor, partial curve] | – |
| O=C(Cn1ccc2cc(S(=O)(=O)N3CCCCC3)ccc21)NCc1ccccc1F | inconclusive [inhibitor, single point] | – |
| COc1ccc2oc(C(=O)CCC(=O)O)c(N)c2c1 | – | inactive: -22.2% |
| CCOc1ccccc1N(CC(=O)NCCc1ccc(OC)c(OC)c1)S(=O)(=O)c1ccccc1 | inconclusive [inhibitor, single point] | – |
| O=C(Nc1ccc(S(=O)(=O)N2CCCCC2c2cccnc2)cc1)c1ccc(Br)cc1 (stereo not drawn) | active: 16.4 µM | – |
| CN(CC(=O)Nc1ccc(N2CCOCC2)cc1)C(=O)CCc1ccccc1Cl | – | inconclusive: -33.9% [inhibitor] |

| SMILES | Potency | activity change, negative = growth inhibition |
| --- | --- | --- |
| CCc1nc(N)c(C#N)c(-c2ccccc2OC)c1C | active: 13 µM | – |
| COC(=O)c1ccc(CN(C)S(=O)(=O)c2cccs2)cc1 | – | inactive: -2.26% |
| O=C(COC(=O)C12CC3CC(CC(Cl)(C3)C1)C2)Nc1ccc2[nH]c(=O)[nH]c2c1 | – | inactive: 3.56% |
| CCC1=Nc2cc(C(=O)NC3CCC(C)CC3)ccc2Sc2ccc(C)cc21 (stereo not drawn) | active: 1.3 µM | – |
| CC1(C(=O)NCc2ccccc2Br)CCN1Cc1csc2ccccc12 (stereo not drawn) | inconclusive [inhibitor, single point] | – |
| COCCNC(=O)C1(C)CCN(C(=O)/C=C/c2ccccc2)C1 (stereo not drawn) | – | inactive: -16.7% |
| O=C(COC(=O)c1ccc2c(c1)OCO2)Nc1ccccc1 | – | inactive: -2.96% |
| COc1ccc(-c2ccc3c(c2)S(=O)(=O)c2cccc(C(=O)NCCOc4ccccc4)c2C3=O)cc1OC | active: 18.4 µM | – |
| O=C(NCc1ccccn1)C(=O)Nc1cccc2ccccc12 | – | inactive: 3.85% |
| CCC(C)NC(=O)CSc1nc2n[nH]c(C)c2c(=N)n1-c1cc(Cl)ccc1C (stereo not drawn) | inconclusive [inhibitor, single point] | – |
| O=C(C1CCCN(S(=O)(=O)c2cccc3nsnc23)C1)N1CCN(c2ccccc2F)CC1 (stereo not drawn) | active: 18.4 µM | – |
| CC1CC(C)CN(S(=O)(=O)c2ccc(C(=O)N(C)Cc3ccccc3)cc2)C1 (stereo not drawn) | inconclusive [inhibitor, single point] | – |
| CC(C)c1ccc(NC(=O)c2ccc(F)c(S(=O)(=O)N3CCc4ccccc43)c2)cc1 | active: 5.17 µM | – |
| COc1ccc(C(=O)NNC(=O)CN2CCN(c3nc(-c4ccccc4)cs3)CC2)cc1 | inconclusive [inhibitor, single point] | – |
| O=C(CSc1ncnc2ccccc12)Nc1ccc2c(c1)OCO2 | inconclusive [inhibitor, single point] | – |
| COc1ccccc1NC(=O)c1sc2nc(C)c(C(=O)Nc3ccc(C)cc3C)c(-c3ccco3)c2c1N | inconclusive [inhibitor, partial curve] | – |
| CCc1c(C)nc(N2CCN(c3cccc(OC)c3)CC2)[nH]c1=O | inconclusive [inhibitor, partial curve] | – |
| O=C(NCc1ccc(F)cc1)c1cc(C2CCCCN2C(=O)c2ccccc2)on1 (stereo not drawn) | inconclusive [inhibitor, single point] | – |
| O=C(NC1CCN(Cc2ccccc2)C1)c1cccc(S(=O)(=O)N2CCOCC2)c1 (stereo not drawn) | – | inactive: -33.3% |
| Clc1ccc(OCCOCCNCc2ccccc2)cc1Cl | active: 16.4 µM | – |
| CC1CCN(S(=O)(=O)c2cccc(C(=O)Nc3nccs3)c2)CC1 | inconclusive [inhibitor, single point] | – |
| COc1cc(C(F)(F)F)c(C(=O)N(C)Cc2ccc(Cl)c(Cl)c2)cn1 | inconclusive [inhibitor, single point] | – |
| COc1ccccc1CNC(=O)c1cc2sccc2n1Cc1ccc(Cl)cc1 | inconclusive [inhibitor, partial curve] | – |
| CC(C)(C)CC(=O)Nc1nnc(SCC(=O)Nc2ccccc2F)s1 | inconclusive [inhibitor, partial curve, poor fit] | – |
